Source: the supplement of paper PMC3334620
The full ranking holds about 33,000 sequences; the median of “E-score (-0.5 to 0.5)” is about -0.035, and the highest 2% start at about 0.35. Some of the results follow.

Target: T1, Pdr3 (UniProt P33200)
T1 sequence: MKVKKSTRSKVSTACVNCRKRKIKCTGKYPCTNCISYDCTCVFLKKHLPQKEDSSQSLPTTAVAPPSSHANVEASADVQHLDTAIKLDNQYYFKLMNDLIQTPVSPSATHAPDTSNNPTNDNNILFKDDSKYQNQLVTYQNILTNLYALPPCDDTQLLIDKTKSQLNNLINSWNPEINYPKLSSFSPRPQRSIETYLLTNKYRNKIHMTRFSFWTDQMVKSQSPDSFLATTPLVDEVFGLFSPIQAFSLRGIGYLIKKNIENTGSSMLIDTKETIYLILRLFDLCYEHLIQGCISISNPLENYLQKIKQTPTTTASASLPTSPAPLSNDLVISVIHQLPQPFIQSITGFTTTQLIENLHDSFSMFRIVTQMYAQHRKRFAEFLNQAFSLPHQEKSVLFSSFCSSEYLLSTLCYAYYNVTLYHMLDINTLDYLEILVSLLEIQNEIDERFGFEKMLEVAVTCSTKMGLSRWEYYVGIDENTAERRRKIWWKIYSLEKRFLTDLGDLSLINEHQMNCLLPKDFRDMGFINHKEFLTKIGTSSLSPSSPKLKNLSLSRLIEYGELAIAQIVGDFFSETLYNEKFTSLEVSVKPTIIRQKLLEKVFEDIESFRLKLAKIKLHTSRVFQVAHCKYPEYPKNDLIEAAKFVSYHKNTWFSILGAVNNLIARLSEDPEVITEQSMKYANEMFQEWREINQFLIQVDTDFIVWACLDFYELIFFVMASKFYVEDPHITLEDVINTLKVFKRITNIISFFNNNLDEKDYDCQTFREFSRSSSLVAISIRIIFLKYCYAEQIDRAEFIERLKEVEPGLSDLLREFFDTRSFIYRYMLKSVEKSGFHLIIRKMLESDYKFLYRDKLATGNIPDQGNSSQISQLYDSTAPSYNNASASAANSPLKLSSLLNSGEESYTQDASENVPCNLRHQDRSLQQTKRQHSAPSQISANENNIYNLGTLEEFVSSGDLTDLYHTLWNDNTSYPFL
Experiment: PBM E-score (8-mer binding enrichment) (E-score (-0.5 to 0.5)); higher = stronger / more preferred TF binding; most listed sequences are background and not binding sites
Details: protein concentration: 200 nM; construct: GST-full length
Method in brief: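 Universal all-10-mer Agilent arrays, double-stranded by primer extension on fresh or once-stripped slides, were probed with about 100-200 nM GST-tagged yeast transcription factors made by PURExpress. Fluorescent anti-GST detected bound protein, and masliner normalised the scans. E-scores from the Universal PBM Analysis Suite were given to each ungapped eight-base word pooled with its reverse complement.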

Sequence | PBM E-score
TAACCCGA | 0.0621
TCCTCTAA | -0.193
TAGGGTGA | 0.00768
CTACCCTA | -0.147
ACAAATAC | 0.0413
ATCGGGAC | 0.163
CGTCTCCA | 0.0712
AAGGGATC | 0.0636
CGGAGATA | 0.386
AGGAGCTA | -0.374
AGTCCAGA | -0.144
ATCCCGTA | 0.242
CAGCACCG | 0.0881
CATGTGTA | -0.0603
AGGCCAAG | -0.156
AGGAGCAC | -0.0134
AACAGGGA | 0.00934
CGAATGCA | -0.00384
CAGAGTGC | -0.125
AGCCTCTA | -0.333
CCCACCCC | 0.198
ACATCTTG | -0.126
AGATATTC | -0.0705
AATAAACG | -0.0217
GGCTCGTA | -0.035

Sequence | PBM E-score
GTTTACAA | -0.0369
CTCATTAC | -0.0319
TCCGCCAA | 0.264
GGCATGCA | -0.0346
ACTTGCTG | -0.278
ACGGCCTC | 0.0451
AACCCTAC | -0.229
ATTATACG | 0.202
ATGGACCC | -0.0167
GCGCGGCC | 0.219
ACGCCCTG | 0.0456
CATGCGCA | 0.0514
AATGGGCT | -0.161
TGGGGTAA | 0.0964
CCGACGCA | 0.0126
AACCGGAA | 0.435
ACCCAATA | -0.026
AGCGCTGC | -0.157
CAACACAA | -0.13
ATAACATG | 0.00778
GATAATAC | 0.0742
ATACATAT | 0.226
AATGTAAG | 0.033
ACGCAGGA | -0.232
AAGAGGGG | -0.158

Sequence | PBM E-score
CCGCGTCG | 0.269
GCTTTAAA | -0.0479
GGGCGTCA | 0.0172
GCCGCCAA | 0.113
GATTTCAC | 0.0747
CGCAAATA | 0.125
CCCTCACC | -0.0867
GAACATGC | 0.0198
CAATCGCC | 0.0564
AGCGATCG | 0.0757
ATCAGCAC | -0.0673
AATTCAAT | -0.0229
AGTCGAAC | 0.0104
ACGAAATC | 0.0416
ATTTAATG | 0.11
ATGTAGCC | -0.165
ACATTGGA | -0.186
ACGAAGCT | -0.097
AGAGCCGC | 0.0785
CCGCAACA | 0.219
CGCATCAG | 0.142
CCGTTCTA | 0.239
CGCGCCAA | 0.203
TGAAGGAA | -0.0606
ACGGGTCG | 0.227

Sequence | PBM E-score
ATATCACC | 0.0724
GCTGATCA | 0.033
TATTGAAA | 0.0374
ATTCTTGA | -0.0577
ATTGCCCG | 0.0498
AGCGCTGA | 0.186
CATGGCAG | 0.0653
ATCAACCA | -0.0605
CCGAGCCG | 0.359
CCGGTTAC | 0.191
ATGATCAA | -0.164
GGTCCTAC | -0.179
ATTCGTCC | 0.275
ATATACGA | -0.238
CGCAGCGC | 0.0256
ATAGCGAC | -0.186
ACATGTCT | -0.0977
AAAGTGAG | -0.016
AGAGGGCA | -0.279
GCGCCCAC | -0.0118
ACGAAACT | -0.129
CTAGTGGA | -0.233
AATGCTAC | 0.0829
CGCATTCA | 0.0984
GTCTCTTA | 0.0669

Sequence | PBM E-score
AAGCAACG | 0.0979
GAACCGCA | 0.132
AACCTAGA | 0.11
ATGACTGA | -0.131
GAGCTTAA | -0.0421
CTTCCACC | -0.144
CCGGTACG | 0.108
AGGAGTAA | -0.0324
GCACTCGA | 0.0201
CGAATAGA | -0.069
CCTTGGCG | -0.0565
ACTTATTA | -0.0477
ACCAGTTC | 0.0316
CATAAGCG | -0.162
ATCTAGTA | -0.0835
GTCCGTAA | 0.191
CCGGAGAA | 0.385
CGTGTGAC | -0.125
GCCATCCA | 0.0164
ATCAGGGA | -0.258
AAGTTGGC | -0.0418
ATGCTATG | -0.155
GCTGTTCC | 0.147
ACTCTAAG | -0.173
CGATTGCA | 0.0912

Sequence | PBM E-score
ACTAGTCG | -0.0491
CCCCTTAG | -0.0978
AACAACCC | 0.145
CTGTCCTA | -0.293
GATTCGTA | -0.00377
CATCGAAG | -0.0311
AATTCTGG | -0.128
ATTCGTGC | 0.0636
ACTCATTC | 0.198
GTATATTA | -0.208
CGCTATCC | 0.158
AGGTCTAC | -0.148
TCTCCAAA | -0.124
AAAGGCTT | -0.24
AATGTTGA | -0.0567
TGATAGAA | -0.143
GATTCTTA | -0.0304
AAGTGCTG | -0.172
AATCGATC | 0.00169
GCAAGTAC | -0.141
GAAAGGGC | -0.136
AAGACAAG | 0.0204
CTTGTCAC | -0.089
CGTGGGTA | 0.0427
CTGAGTCC | -0.146

Sequence | PBM E-score
AGATGTGG | -0.207
AGCATGAC | -0.13
CCTAAACA | -0.15
ATATCCAA | 0.0105
CCGAGCGC | 0.251
AATTGTTC | 0.16
TAGTCTAA | -0.193
TTCTCCAA | -0.172
GCAAGGCC | 0.0202
CGCTAACG | 0.0263
GGTTAAAA | -0.0608
CTACTACC | -0.00339
TGCCTTAA | -0.258
ACACGTAA | -0.169
CACACTGA | -0.223
ATATAGGG | -0.118
GTCGCCCA | -0.0984
GTGATGTA | 0.0167
GGGAGACC | -0.0244
AACCCGCC | 0.165
CTCACGCC | 0.0465
GTACAGAA | -0.00734
